Experimental data: PubChem BioAssay AID1347071 (National Center for Advancing Translational Sciences (NCATS), 2019)
In all, about 410,000 compounds went through this assay and about 260 (0.063%) were called active. Inconclusive results, whose numbers are uncertain, are shown with a selection of clear calls. The call rests on the fitted dose curve; in most records, active means well fitted activation curve with a large enough effect; inconclusive means small, poorly fitted or top-dose-only effect; inactive means no such curve, though single readings can be large or run the other way. Potencies of inconclusive entries are left out as doubtful fits.
Potency means the concentration at half of the fitted maximal effect; tags describe the fitted curve by direction and shape.

Test: qHTS for compounds that reverse cellular toxicity of Amyloid beta (A-beta) peptide in yeast: Primary Screen; further: nearly all actives have a fitted effect of over 55% in size
Settings: yeast expressing A-beta42, growth rescue, OD600, 48 h; growth rescue: at 46.1 µM (top of the series), 0% DMSO, 100% iron-clioquinol control
Method in brief: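 Yeast growth medium received pinned compounds, then yeast cells expressing toxic A-beta were added; plates incubated at 30 C for 48 hr. Growth read as absorbance at 600 nm, normalized to DMSO and equimolar FeCl3 plus clioquinol controls.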
In the case of `Cc1nn(Cc2ccc(Cl)c(Cl)c2)c(C)c1NC(=O)c1cc(-c2ccco2)on1`, the Potency was inconclusive [activator, full curve].
In the case of `CNC(=S)N/N=C/c1c(C)nn(-c2ccc(F)cc2)c1Cl`, the Potency was inconclusive [activator, partial curve, poor fit].
In the case of `COc1ccc(/C=N/NC(=O)c2ccc(CSc3nc(C)cc(C)n3)cc2)c(OC)c1OC`, the Potency was “inactive”.
In the case of `CCCCNC(=S)Nc1ccccc1F`, the Potency was inconclusive [activator, partial curve, poor fit].
In the case of `Clc1ccc(-c2nc(/C=N/N3CCOCC3)c3ccccn23)cc1`, the Potency was inconclusive [activator, single point].
In the case of `CC(=O)Nc1nc2ccccc2n1CCOc1ccccc1`, the Potency was inconclusive [activator, partial curve, poor fit].
For `CCOc1ccccc1NC(=O)C(=O)CC(=O)c1cccc(OC)c1`, the Potency was inconclusive [activator, partial curve, poor fit].
In the case of `COc1cccc(-c2ccc(=O)n(CC(=O)NCCN3CCOCC3)n2)c1`, the Potency was “inactive”.
In the case of `CCN(c1ccccc1)S(=O)(=O)c1ccc(Cl)c(NC(=O)CNC(C)c2ccccc2)c1` (centres undefined), the Potency was inconclusive [activator, partial curve, poor fit].
With `S=C(NCc1ccco1)Nc1cccc(Cl)c1Cl` the Potency was inconclusive [activator, single point].
In the case of `COc1ccc(Cl)cc1NC(=S)N1CCC(c2ccc(C)cc2)C1` (centres undefined), the Potency was inconclusive [activator, partial curve, poor fit].
For `CCC(=O)Nc1nc2ccccc2n1Cc1ccccc1`, the Potency was inconclusive [activator, single point].
In the case of `CCOc1ccc(CNC(=O)CCCc2cn(C)c3ccccc23)cc1`, the Potency was inconclusive [activator, single point].
For `CN(C)/C=C(\C(=O)c1ccccc1)c1nnnn1-c1ccc(F)cc1`, the Potency was inconclusive [activator, partial curve, poor fit].
With `COc1cccc(N2CCN(C(=O)CN3CCSc4ccccc43)CC2)c1` the Potency was inconclusive [activator, single point].
For `Cc1ccc2nc(NC(=O)CSc3nccn3Cc3ccc(F)cc3)sc2c1`, the Potency was inconclusive [activator, single point].
In the case of `CC1C=CCC2C(=O)N(c3cc(Cl)ccc3O)C(=O)C12` (centres undefined), the Potency was inconclusive [activator, single point].
With `COc1ccccc1C(=O)N1CCN(c2cccc(C(F)(F)F)c2)CC1` the Potency was “inactive”.
In the case of `COc1cc(C#Cc2c(-c3cncn3C)n(C)c3ccc(-c4ccc(CN5CCOCC5)cc4)cc23)cc(OC)c1`, the Potency was “inactive”.
For `Cc1ccc(C)c(C2=NNC(=NCc3ccccc3)SC2)c1`, the Potency was inconclusive [activator, single point].
For `COC(=O)c1ccccc1NC(=O)CSc1nc(C)c(Cl)c(C)c1C#N`, the Potency was “inactive”.
In the case of `COc1cc(C(=O)Nc2ccc(-c3nc4cc(C)ccc4o3)c(O)c2)cc(OC)c1OC`, the Potency was “inactive”.
In the case of `CC(C)c1nnc(SCC(=O)N2CCc3ccccc32)n1N`, the Potency was inconclusive [activator, partial curve].
In the case of `CCCCN1C(=O)C(CC(=O)NCCCCc2ccccc2)CC(C(=O)N2CCCCCC2)=C1C` (centres undefined), the Potency was “inactive”.
In the case of `CCN(CC)C(=O)COc1cccc2ccccc12`, the Potency was inconclusive [activator, full curve].
With `Cc1ccc(OCCC(=O)OCC(=O)NC(=O)NC2CCCCC2)cc1` the Potency was inconclusive [activator, single point].
In the case of `CCOC(=O)N1CCC(O)(c2cc(C)c(C)cc2C)CC1`, the Potency was inconclusive [activator, partial curve, poor fit].
For `CN(C)C(CNC(=O)/C=C/c1cccc(Cl)c1)c1ccccc1` (centres undefined), the Potency was “inactive”.
In the case of `Cc1ccc(Cl)cc1NC(=O)c1ccc(Cn2cc(Cl)cn2)cc1`, the Potency was inconclusive [activator, partial curve, poor fit].
For `Cc1ccccc1CSc1nccn1-c1ccccc1`, the Potency was inconclusive [activator, partial curve, poor fit].
In the case of `CCc1nc(-c2ccc(C)c(S(=O)(=O)N3CCN(c4ccc(C(C)=O)cc4)CC3)c2)no1`, the Potency was “inactive”.
For `O=C(/C=C/c1ccccc1)Oc1ccccc1C(=S)N1CCOCC1`, the Potency was inconclusive [activator, partial curve, poor fit].
For `COc1ccc(NC(=O)CCNS(=O)(=O)c2ccc(C)c(C)c2)cc1OC`, the Potency was “inactive”.
With `Cc1nc(NC(=O)C2CCCC2)sc1Cc1ccc2c(c1)OCO2` the Potency was inconclusive [activator, single point].
In the case of `CCc1ccccc1C1=CC(=O)C[C@H](c2ccc(OC)cc2)C1`, the Potency was inconclusive [activator, single point].
For `O=[N+]([O-])c1cc(S(=O)(=O)Nc2ccccc2)ccc1Nc1ccccc1`, the Potency was inconclusive [activator, partial curve, poor fit].
For `Cc1c(Cl)cccc1NC(=S)NCc1ccc(F)cc1`, the Potency was inconclusive [activator, partial curve, poor fit].
For `Cc1cnc(NC(=O)Cc2c[nH]c3ccccc23)s1`, the Potency was inconclusive [activator, single point].
For `N#Cc1ccc(NC(=S)/N=C(\N)c2ccccc2)cc1`, the Potency was inconclusive [activator, single point].
In the case of `O=C(COC(=O)c1cc(F)c(F)cc1Cl)NC1CC1`, the Potency was “inactive”.
In the case of `CCc1ccc(C(=O)NNc2ccccc2F)cc1`, the Potency was inconclusive [activator, single point].
With `CC(c1ccc2c(c1)OCO2)n1c(=S)[nH]c2ccccc2c1=O` (centres undefined) the Potency was inconclusive [activator, partial curve].
In the case of `O=c1c2c(-c3cccs3)csc2ncn1-c1ccc(Br)cc1`, the Potency was “inactive”.
With `Cc1ccc2c(c1)c1c3n2CCN(C(=O)c2cccc(C(F)(F)F)c2)C3CCC1` (centres undefined) the Potency was “inactive”.
In the case of `COc1cccc(-c2nc(-c3ccccc3)c(-c3ccccc3)[nH]2)c1OCC(=O)O`, the Potency was “inactive”.
For `COc1ccc(C2CN=NC23CCc2ccccc2C3=O)cc1` (centres undefined), the Potency was “inactive”.
In the case of `O=C(NCCNc1ccc([N+](=O)[O-])cc1C(F)(F)F)c1cccc(F)c1`, the Potency was inconclusive [activator, partial curve, poor fit].
In the case of `COC(=O)Cn1c(=O)c2c(nc3n2CC(C)CN3Cc2ccccc2)n(C)c1=O` (centres undefined), the Potency was inconclusive [activator, partial curve, poor fit].
In the case of `CCOC(=O)N1CCN(CC(=O)Nc2ccc(Oc3ccccc3)cc2)CC1`, the Potency was inconclusive [activator, partial curve].
With `CCOc1ccc(N=C2NC(=O)C(CC(=O)Nc3ccccc3)S2)cc1` (centres undefined) the Potency was inconclusive [activator, single point].
In the case of `COc1ccc(CNC(=O)C(=O)N2CCC3(CC2)OCCN3S(=O)(=O)c2ccc(C)cc2)cc1`, the Potency was inconclusive [activator, partial curve, poor fit].
In the case of `COc1ccccc1N1CCN(C(=O)CCNS(=O)(=O)c2ccc(Br)s2)CC1`, the Potency was “inactive”.
For `S=C1NC[C@H](c2ccccc2)N1CCCCC1CCCCC1`, the Potency was inconclusive [activator, partial curve].
In the case of `Cn1c(CNC(=O)C2CCCCC2)cc2ccccc21`, the Potency was inconclusive [activator, partial curve].
With `CCOC(=O)CNC(=S)N(Cc1ccccc1)Cc1ccccc1F` the Potency was inconclusive [activator, single point].
For `CCOc1ccccc1Nc1nnc(SC(C)C(=O)Nc2nc(-c3ccccc3)cs2)s1` (centres undefined), the Potency was inconclusive [activator, single point].
With `COc1ccc(OC)c(-c2csc(N3CCC(c4ccccc4)CC3)n2)c1` the Potency was inconclusive [activator, partial curve, poor fit].
In the case of `Cc1ccsc1/C=N/NC(=O)CSCc1ccc(Cl)cc1`, the Potency was “inactive”.
In the case of `Cc1ccc(C(=O)NCc2ccccc2)cc1NC(=O)c1nsc2ccccc12`, the Potency was “inactive”.
For `COc1cccc(/C=C/C2=CC(C)(C)NC(=S)N2)c1`, the Potency was inconclusive [activator, single point].
For `c1ccc(NCCC2OCC3(CO2)COC(CCNc2ccccc2)OC3)cc1` (centres undefined), the Potency was inconclusive [activator, single point].
For `Cc1ccc(S(=O)(=O)c2c(N)n(CC3CCOC3)c3nc4ccccc4nc23)cc1` (centres undefined), the Potency was “inactive”.
With `Cc1csc(NC(=O)CSc2nnc(CCNC(=O)c3cccs3)n2C)n1` the Potency was inconclusive [activator, partial curve, poor fit].
For `CCc1ccc(NS(=O)(=O)c2cc(OC)ccc2OC)cc1`, the Potency was inconclusive [activator, full curve, poor fit].
With `COc1ccc(Nc2nc(N)nc(CSC(=S)N3CCN(C)CC3)n2)cc1` the Potency was “inactive”.
For `NNc1nc2ccc(Cl)cc2s1`, the Potency was inconclusive [activator, single point].
In the case of `CCOC(=O)[C@]12CCCC=C1N(Cc1ccco1)C(=O)[C@H](CC(=O)N1CCC(c3ccccc3)CC1)C2`, the Potency was “inactive”.
With `S=C(N/N=C/c1ccc2ncccc2c1)Nc1ccccc1` the Potency was inconclusive [activator, single point].
For `Oc1ccc(CNc2ccccc2)c2cccnc12`, the Potency was inconclusive [activator, partial curve].
